# Measured values: publication PMC12136788
# This is one part of the list.
# B1: chr12:48362563:48362564:+_ENSG00000134291_ENST00000256686|hu_hu|hu_hu_hu_mus_False|68_88 (ssRNA)
# RNA: GGGAGUUCUACAGUCCGACGAUCUCCGUCAAGCCCUUCGAUAGACCCAUAGACUCUAAACUGUAAUAAUUCUAACUGGGGAAGGAAAAGAAACGCCAAAAACUUUCCAAAAAGCGGGGGUGGGGUGAGGCGGGAGGGGGAGGUCAACAGAGGAUUGAGCAUCA
# B2: 96090537_96091411_2932_3pUTR_ENSG00000182168_ENST00000453304|human|control|control (ssRNA)
# RNA: GGGAGUUCUACAGUCCGACGAUCGUAAUUCAAGUACCUGUCCAGGUUCAGCUUAUGGGCCAGCAUCCUCCAGUCAUGGCCUCUCGUCUGGGGGGCAUCCAGGCUGCUACAGAGCUUCUGCCGGAUAGGGAGAGGGAUGCUGAACAACAGAGGAUUGAGCAUCA
# B3: chr2:216981417:216981418:+_ENSG00000079246_ENST00000392132|hu_hu|hu_hu_hu_mus_True|38_68 (ssRNA)
# RNA: GGGAGUUCUACAGUCCGACGAUCCUGAUACUGGUCCUUGCCAGCAAGGGCAUUAUCAGUGCCAUCUGUACCAAACAGGACUAACGCAAUCUCAUCUUUGUUCUCAGAAAAUACCUGUCGUUGGACAAACAUAGUCAUCACUUUCAACAGAGGAUUGAGCAUCA
# B4: chr2:46810187:46810188:+_ENSG00000119729_ENST00000238738|hu_hu|motif|central (ssRNA)
# RNA: GGGAGUUCUACAGUCCGACGAUCAAUGUGUAAUAGUUUACUGUUGUAAUUCGUUUAUACCAUGUGUUGGACAACUCAGCGGAUAUGUUAAUUGAUUUAUACAAUUCCUUUCAAUUUUAUCUAAAAAUAAGCAGACCAAAAUUACAACAGAGGAUUGAGCAUCA
# B5: chr7:150721943:150721944:-_ENSMUSG00000059119_ENSMUST00000072727|mus_mus|motif|central (ssRNA)
# RNA: GGGAGUUCUACAGUCCGACGAUCCACCUGGAGCUGCUUCAGGGCAUUAAUUCUUCUUUUGACAGCUUUAGGUAAAGUUUCGGUGUAACUAGAAGGAGUGUGAGAGACGUUGUCAAGACGUUCCUGCAAAGCUGCCAGCACUUGCAACAGAGGAUUGAGCAUCA
# B6: chr6:17615347:17615348:+_ENSMUSG00000015733_ENSMUST00000015877|mus_hu|motif|central (ssRNA)
# RNA: GGGAGUUCUACAGUCCGACGAUCUCCGGUCAUGCAAUGUUCAUCUUAUGCAUUCUGCAUCUCUUUGCCAAUCUUGUAGCGGAGGAUCUUGUUCCAAUCAAUCUUAGUGCGUGUAACUGGCAACUGUCGACGUAAGGCUUUGAACAACAGAGGAUUGAGCAUCA
# B7: chr12:100720429:100720430:+_ENSG00000136021_ENST00000360820|hu_mus|FALSE|FALSE (ssRNA)
# RNA: GGGAGUUCUACAGUCCGACGAUCGAAGGGUAGGAUAUCAUCAAGCACAAACCACUUAUCCAGGUACUCCAGGAUCUUCCCUAAGCACACUAAUGAAUUCACACGGACAGCAAGGGAAGACGUUUGUAAACAGGCAUUUUUAAUCAACAGAGGAUUGAGCAUCA
# B8: 148756940_148757411_2825_CDS_ENSG00000071794_ENST00000310053|human|control|control (ssRNA)
# RNA: GGGAGUUCUACAGUCCGACGAUCAAAACACUGAAUUGAUUCAACUCUUUUCUUUUGGGCCAUGGAACCAUCCAAACGAGUAAACACAAAUCCAGAGGCUUUAAGUGGUAUUUCUAUUAAAGACAGGAAUGUUGUAAACUGAGACAACAGAGGAUUGAGCAUCA
# B9: 21461063_21466172_6558_CDS_ENSMUSG00000042453_ENSMUST00000161356|mouse|control|control (ssRNA)
# RNA: GGGAGUUCUACAGUCCGACGAUCCCAACGGAAACGCACAGAUCCACAAAGGUGCAGCUUUCCGAAGUGCACGACCUCCCGCCGCCAGCCCUGGGUGGUCCCCGCGUAGUAGGUGCUGCUCGGGUGAUGCUCAGUGGAGCAUAACAACAGAGGAUUGAGCAUCA
# B10: 40762976_40763096_572_CDS_ENSMUSG00000047446_ENSMUST00000101472|mouse|control|control (ssRNA)
# RNA: GGGAGUUCUACAGUCCGACGAUCAGUUAUUUUAUGAAGUUCAGUUUUGGCUUCUUCCAUUCUCUCAACAUCGACAGAGUCCACCACAAACACAAUACCAUCUGUGCAUCGGGUGUAUGACUUCCACAGUGGUCUUAACUUCUCCAACAGAGGAUUGAGCAUCA
# B11: chr5:145858064:145858065:+_ENSG00000113649_ENST00000394421|hu_hu|FALSE|FALSE (ssRNA)
# RNA: GGGAGUUCUACAGUCCGACGAUCCCACAUAGAAAGACGAGUGGUGGGAUUAUAAAAGAAGACCCGCUCAUCACCAGUCCAAACGACACACCAUGGAGUACCAGGAAUAGGAGCAGUAGCAACUGGCUUUGCCUUCUGGGCAGCCAACAGAGGAUUGAGCAUCA
# B12: 27720159_27733746_472_CDS_ENSMUSG00000024213_ENSMUST00000025050|mouse|control|control (ssRNA)
# RNA: GGGAGUUCUACAGUCCGACGAUCAAAAAUUCCAACUAGUCUUCCCAGUGUCCCUUUCACUCCAGCCUCCUCACACACUUCCCGGACAGCUGCCACACUUGGCUCCUCCUCAGGCUCCAUGCCUCCUCCGGGGACAAUCCAUCGCAACAGAGGAUUGAGCAUCA
# B13: 113923486_113924314_1533_CDS_ENSG00000119927_ENST00000348367|human|control|control (ssRNA)
# RNA: GGGAGUUCUACAGUCCGACGAUCAAUCAACCUCCUUCGUAGGGAUUCAUCUGUUGCAUUUCUGGACUCAUUAAUGGACGUGUCUCUACCUUCAUCAGCAGCAUCACUGGGUCUUGAAGGAAGUAUAGCUGGUAACAACGCUUGCAACAGAGGAUUGAGCAUCA
# B14: chr2:60072322:60072323:+_ENSMUSG00000026977_ENSMUST00000102748|mus_hu|motif|central (ssRNA)
# RNA: GGGAGUUCUACAGUCCGACGAUCUGAUCUUGUAUUCAAGGAAUCCUGACUAGAUCUUCGUGAAAAAAAAGUAGAUGACAUGCGGGAAGCUAUGCGUGACAGCAAUCUCCUCGUUGUCCGCCUACCUUCAUUGUCAGAAGAUUCCAACAGAGGAUUGAGCAUCA
# B15: chr3:150289932:150289933:+_ENSG00000144895_ENST00000460851|hu_hu|hu_hu_hu_mus_False|28_28 (ssRNA)
# RNA: GGGAGUUCUACAGUCCGACGAUCCUUGUAGUUUUUAACAUCCCAUACUUCCAUUUGUCCUCGAAGAUUUCCAAAUCCAGCCAGCACUAAUAUAUGUCCAUGAGGGCUAUAGUAGGCUGCGUUGCGAGGACCAGUCCCAAAGUCCAACAGAGGAUUGAGCAUCA
# B16: chr3:176767854:176767855:-_ENSG00000177565_ENST00000430069|hu_hu|hu_hu_hu_mus_False|28_58 (ssRNA)
# RNA: GGGAGUUCUACAGUCCGACGAUCGACAUCCUUGUUACUGGGCACGUCCUGCCCUCCUUCCCGUAUGCAGUGUCUAAGUACUAACUGCGUAGGGCCACUCGUGCUGUUCUCACUAAGGUUCCAGAUUCUUGCCGUGGAGUCUCCCAACAGAGGAUUGAGCAUCA
# B17: chr1:225611761:225611762:-_ENSG00000143815_ENST00000272163|hu_mus|hu_hu_hu_mus_True|58_98 (ssRNA)
# RNA: GGGAGUUCUACAGUCCGACGAUCCCAGGCCAUCGGCCUCUUACCACUUCACCCUCAACAAACUUCCUACUUGGCAUUUUCUAUAAUUAGUCUGGCCGCGCUCCGGCGGGAACUCCAGCCACUCCAGGACAGUCACCAGCAGCCCAACAGAGGAUUGAGCAUCA
# B18: chr11:46405157:46405158:+_ENSG00000110492_ENST00000395566|hu_hu|hu_hu_hu_mus_False|8_8 (ssRNA)
# RNA: GGGAGUUCUACAGUCCGACGAUCCCCUCCCCACUUUGGGCACUUGGUGUGGGCGUGAGAGGACAGGCGUGAUUGACAGAGCUGACAGGAAGACAAAAGGCACUGGUGGGUUAUAUCUUGGGCCUGUGAGAGGGAGGGGCUCCGCAACAGAGGAUUGAGCAUCA
# B19: chr10:126501906:126501907:+_ENSMUSG00000006728_ENSMUST00000133115|mus_hu|FALSE|FALSE (ssRNA)
# RNA: GGGAGUUCUACAGUCCGACGAUCCUUCAGAUCUCGGUGAACGAUGCAAUUGGCAUGAAGGAAAUCUAGGCCUCUUAGAAACUGGCGCAUCAGAUCCUUGAUCGUUUCGGCUGGCAAGCCUGGUGGGGGUGCCUUGUCCAGAUACAACAGAGGAUUGAGCAUCA
# B20: chr18:9257185:9257186:+_ENSG00000101745_ENST00000400020|hu_mus|FALSE|FALSE (ssRNA)
# RNA: GGGAGUUCUACAGUCCGACGAUCUUGGAAAUGUUUUAUGGGCUCACAGAUAACUGAGGGCAUACUGCAUCUUCUAAUUUCUACAGCAGGUCUUACCUCAUUAGUAAUUAGUUUAACAUCUUCCACAGAAGAUGACCUGAGAUGCAACAGAGGAUUGAGCAUCA
# B21: chr5:137537078:137537079:-_ENSG00000094880_ENST00000394886|hu_hu|motif|central (ssRNA)
# RNA: GGGAGUUCUACAGUCCGACGAUCAAAUCCAUCAAGUUCUCGAGCUUGGUGUUUUUUGCUGAGCUCCACUCUCAAUUCUCGGAGCGCCUCAUUUUUCACUUGUCCUUUUUCCAGGGGGCCUAAGCUAUCAACUGUUUCAUCGUCCAACAGAGGAUUGAGCAUCA
# B22: chr14:76904430:76904431:+_ENSMUSG00000022010_ENSMUST00000022587|mus_mus|mus_mus_mus_hu_True|68_78 (ssRNA)
# RNA: GGGAGUUCUACAGUCCGACGAUCUGCAGCCAAAAACACCCUCGUGGAAAAAAAGAGCAAGCUCCAGCAGCCUGGUUUAAGCUAGAUAAAAUCUUCUGGCUUUCCGCAGCCCAGGGAGAAACAGAAAACGGCAGCCCUAAUUUACAACAGAGGAUUGAGCAUCA
# Target: T1, UNK ZnF1-3 (human, UniProt Q9C0B0 31-174)
# T1 sequence: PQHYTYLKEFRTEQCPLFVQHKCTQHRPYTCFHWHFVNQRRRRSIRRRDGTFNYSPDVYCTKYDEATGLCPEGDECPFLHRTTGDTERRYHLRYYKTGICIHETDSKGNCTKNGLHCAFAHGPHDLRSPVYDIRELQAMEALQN
# Test: nsRBNS (natural sequence RNA bind-n-seq); RBNS binding buffer (assumed for nsRBNS): 25 mM Tris pH 7.5, 150 mM KCl, 3 mM MgCl2, 0.01% Triton X-100, 500 ug/ml BSA, 20 U/ml SUPERase-In, 4 C; UNK is unkempt and MSI1 is Musashi-1; names of the RNAs are library labels; protein concentration not given here; high values mean tight binding
row,Binder,binding signal [enrichment R]
1,B1,2.65
2,B2,0.744
3,B3,0.629
4,B4,1.89
5,B5,1.03
6,B6,0.716
7,B7,1.19
8,B8,1.29
9,B9,0.965
10,B10,0.602
11,B11,1.43
12,B12,1.01
13,B13,1
14,B14,0.334
15,B15,0.876
16,B16,0.664
17,B17,1.4
18,B18,2.34
19,B19,0.775
20,B20,0.838
21,B21,0.525
22,B22,1.95
